Test results from PubChem BioAssay (Tox21).
The inconclusive results got no clear call from the source; some entries with a clear call stand among them for comparison. For part of these data: Potencies beside an inconclusive call are fits to weak or partial responses and may not hold up. Active and inactive are the calls of the source. Unless noted, calls follow the shape of the full dose curve.

Tests used:
[1] = target: Bile acid receptor (Homo sapiens) (UniProt Q96RI1); assay: qHTS assay to identify small molecule agonists of the farnesoid-X-receptor (FXR) signaling pathway (AID 743220; active = well fitted activation curve with a large enough effect in the signal ratio in the repeat runs, not every such curve was filed as active; inconclusive = weak or mixed curves, or effect the other way; the % refers to the signal ratio; also: potency is read from the fitted curve at half-maximal effect; as to activation: % is scaled to controls: 0 for no effect and ±100 for the full control effect); settings: HEK293T FXR-UAS-bla, beta-lactamase FRET ratio, 16 h; activation: at 62.6 µM (top of the series)
In short: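 Beta-lactamase reporter under UAS control in GeneBLAzer FXR HEK 293T cells (5000/well) measured with LiveBLAzer FRET substrate after 2 h at room temperature. Compound exposure lasted 16 h at 37C.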

[2] = qHTS assay to identify small molecule agonists of the AP-1 signaling pathway (AID 1159526); settings: ME-180 (cervical carcinoma) AP-1-bla reporter, beta-lactamase FRET ratio, 5 h; activation: at 76.8 µM (top of the series) unless noted; also: potency is read from the fitted curve at half-maximal effect
[3] = qHTS assay to identify small molecule agonists of the farnesoid-X-receptor (FXR) signaling pathway - cell viability counter screen (AID 743218; active = well fitted curve in the direction sought with a large enough effect in the repeat runs; inconclusive = weak or mixed curves; inactive = no such curve, though single readings can be large; an effect the other way counts as inactive or inconclusive; also: nearly all actives have a fitted effect of over 45% in size; also: potency is read from the fitted curve at half-maximal effect); settings: FXR-bla HEK293T viability, CellTiter-Glo luminescence, 16 h; viability change, negative = cytotoxic: at 62.6 µM (top of the series) unless noted
In short: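 In GeneBLAzer FXR-UAS-bla HEK 293T cells, compounds act for 16 h at 37 C. Cell viability is then scored in the reporter wells by CellTiter-Glo, 30 min at RT, luminescence.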

[4] = target: Vitamin D3 receptor (Homo sapiens) (UniProt P11473); assay: qHTS assay to identify small molecule antagonists of the vitamin D receptor (VDR) signaling pathway (AID 743223; active = well fitted inhibition curve with a large enough effect in the signal ratio in the repeat runs, not every such curve was filed as active; inconclusive = weak or mixed curves, or effect the other way; inactive = no such curve, though single readings can be large or run the other way; the % refers to the signal ratio; also: % is scaled to controls: 0 for no effect and ±100 for the full control effect); settings: VDR-UAS-bla HEK293T, beta-lactamase FRET ratio, 16 h
In short: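 After VDR-bla cells are plated and left 4 h at 37C, DMSO-dissolved compounds and 3 nM (final) calcitriol agonist are added. Incubation continues 16 h at 37C; FRET beta-lactamase substrate then develops 2 h at room temperature.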

[5] = target: Vitamin D3 receptor (Homo sapiens) (UniProt P11473); assay: qHTS assay to identify small molecule agonists of the vitamin D receptor (VDR) signaling pathway (AID 743222); settings: HEK293T VDR-UAS-bla, beta-lactamase FRET ratio, 16 h; activation: at 63.5 µM (top of the series) unless noted; also: potency is read from the fitted curve at half-maximal effect
In short: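 Agonist activity measured in VDR-bla reporter cells. Exposure 16 h, 37C, 5% CO2; detection by B/G FRET substrate, 2 h RT.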

[6] = qHTS assay to identify small molecule antagonists of the vitamin D receptor (VDR) signaling pathway - cell viability counter screen (AID 743225; active = well fitted curve in the direction sought with a large enough effect in the repeat runs; inconclusive = weak or mixed curves; inactive = no such curve, though single readings can be large; an effect the other way counts as inactive or inconclusive; also: nearly all actives have a fitted effect of over 50% in size; also: potency is read from the fitted curve at half-maximal effect); settings: VDR-bla HEK293T viability, CellTiter-Glo luminescence, 16 h; viability change, negative = cytotoxic: at 61 µM (top of the series) unless noted
In short: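 Cytotoxicity toward the VDR-bla HEK 293T line was scored by ATP-based CellTiter-Glo luminescence, read in the wells already used for the beta-lactamase readout after 16 h compound treatment under 3 nM 1-alpha,25-dihydroxyvitamin D3 stimulation.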

[7] = qHTS assay for small molecule agonists of the antioxidant response element (ARE) signaling pathway (AID 743202; active = well fitted activation curve with a large enough effect in the signal ratio in the repeat runs, not every such curve was filed as active; inconclusive = weak or mixed curves, or effect the other way; inactive = no such curve, though single readings can be large or run the other way; the % refers to the signal ratio; also: potency is read from the fitted curve at half-maximal effect); settings: HepG2 ARE-bla reporter, beta-lactamase FRET, 16 h
In short: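 ARE-bla HepG2 cells (beta-lactamase reporter under the antioxidant response element), plated 5 hours, then exposed to compounds 16 hours at 37 C. LiveBLAzer B/G FRET substrate added for 2 hours at room temperature; fluorescence intensity read.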

[8] = qHTS assay for small molecule agonists of the antioxidant response element (ARE) signaling pathway - cell viability counter screen (AID 743203); settings: ARE-bla HepG2 viability, CellTiter-Glo luminescence, 16 h; viability change, negative = cytotoxic: at 73.3 µM (top of the series); also: nearly all actives have a fitted effect of over 55% in size; also: potency is read from the fitted curve at half-maximal effect
In short: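 Cells (ARE-bla HepG2, 2,000/well) receive DMSO-dissolved compounds after a 5 hrs rest. Plates incubate 16 hrs at 37C/5% CO2. CellTiter-Glo luminescence is then recorded after 30 min at room temperature.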

[9] = qHTS assay to identify small molecule antagonists of the peroxisome proliferator-activated receptor delta (PPARd) signaling pathway - cell viability counter screen (AID 743213; active = well fitted curve in the direction sought with a large enough effect in the repeat runs; inconclusive = weak or mixed curves; inactive = no such curve, though single readings can be large; an effect the other way counts as inactive or inconclusive; also: potency is read from the fitted curve at half-maximal effect; nearly all actives have a fitted effect of over 50% in size); settings: PPARd-bla HEK293H viability, CellTiter-Glo luminescence, 17 h; viability change, negative = cytotoxic: at 62 µM (top of the series) unless noted
In short: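 PPARd-bla HEK293H cells were treated with compounds plus agonist L165041 (300 nM final) for 17 h at 37 C. Viability was then read in the same wells by CellTiter-Glo luminescence after 30 min at room temperature.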

[10] = target: Bile acid receptor (Homo sapiens) (UniProt Q96RI1); assay: qHTS assay to identify small molecule antagonists of the farnesoid-X-receptor (FXR) signaling pathway (AID 743217; active = well fitted inhibition curve with a large enough effect in the signal ratio in the repeat runs, not every such curve was filed as active; inconclusive = weak or mixed curves, or effect the other way; inactive = no such curve, though single readings can be large or run the other way; the % refers to the signal ratio; also: potency is read from the fitted curve at half-maximal effect); settings: HEK293T FXR-UAS-bla, beta-lactamase ratio, CDCA-stimulated, 16 h; activity change, negative = inhibition: at 62.6 µM (top of the series) unless noted
In short: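 Beta-lactamase reporter under UAS control in HEK 293T cells; compound exposure 16 h at 37 °C in the presence of chenodeoxycholic acid (50 uM final); signal from B/G FRET substrate after 2 h at room temperature.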

[11] = qHTS assay to identify small molecule antagonists of the farnesoid-X-receptor (FXR) signaling pathway - cell viability counter screen (AID 743221; active = well fitted cell-killing curve with a large enough effect in the repeat runs, not every such curve was filed as active; inconclusive = weak or mixed curves, or effect the other way; inactive = no such curve, though single readings can be large or run the other way; also: potency is read from the fitted curve at half-maximal effect; nearly all actives have a fitted effect of over 50% in size); settings: FXR-bla HEK293T viability, CellTiter-Glo luminescence, 16 h; activity change, negative = cytotoxicity: at 62.6 µM (top of the series) unless noted
In short: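 CellTiter-Glo, 30 min RT, luminescence; same wells as the LiveBLAzer FRET read. Cells: FXR-UAS-bla HEK 293T. Treatment: compound with chenodeoxycholic acid 50 uM final, 16 h at 37 C.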

[12] = qHTS assay to identify small molecule agonists of the vitamin D receptor (VDR) signaling pathway - cell viability counter screen (AID 743224; active = well fitted curve in the direction sought with a large enough effect in the repeat runs; inconclusive = weak or mixed curves; inactive = no such curve, though single readings can be large; an effect the other way counts as inactive or inconclusive; also: nearly all actives have a fitted effect of over 50% in size; also: potency is read from the fitted curve at half-maximal effect); settings: VDR-bla HEK293T viability, CellTiter-Glo luminescence, 16 h; activity change, negative = cytotoxicity: at 62.6 µM (top of the series)
In short: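 VDR-bla cell line, quantitative HTS format; 16 h compound incubation (37C, 5% CO2); ATP-based CellTiter-Glo luminescence measured in the reporter assay wells.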

[13] = qHTS assay for small molecule activators of the heat shock response signaling pathway (AID 743210; active = well fitted activation curve with a large enough effect in the signal ratio in the repeat runs, with a control signal flat, not every such curve was filed as active; inconclusive = weak or mixed curves; the % refers to the signal ratio; also: potency is read from the fitted curve at half-maximal effect); settings: HeLa HSE-bla reporter, beta-lactamase ratio, 5 h; activation: at 62.6 µM (top of the series) unless noted
In short: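 HSE-bla HeLa cells (beta-lactamase reporter under heat shock response elements), plated overnight, then exposed to compounds 5 h at 37 C; LiveBLAzer B/G FRET substrate added, 2.5 h at room temperature, fluorescence intensity read.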

[14] = qHTS assay to identify small molecule agonists of the peroxisome proliferator-activated receptor delta (PPARd) signaling pathway - cell viability counter screen (AID 743211; active = well fitted curve in the direction sought with a large enough effect in the repeat runs; inconclusive = weak or mixed curves; inactive = no such curve, though single readings can be large; an effect the other way counts as inactive or inconclusive; also: potency is read from the fitted curve at half-maximal effect; nearly all actives have a fitted effect of over 55% in size); settings: PPARd-bla HEK293H viability, CellTiter-Glo luminescence, 17 h; activity change, negative = cytotoxicity: at 62.6 µM (top of the series)
In short: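 Multiplexed format: after the 2 h room-temperature LiveBLAzer B/G FRET step, CellTiter-Glo was added to the same wells. Luminescence after 30 min gave cell viability; compound exposure was 17 h at 37C.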

[15] = target: Peroxisome proliferator-activated receptor delta (Homo sapiens) (UniProt Q03181); assay: qHTS assay to identify small molecule agonists of the peroxisome proliferator-activated receptor delta (PPARd) signaling pathway (AID 743212); settings: HEK293H PPARd-UAS-bla, beta-lactamase FRET ratio, 17 h; activation: at 62.6 µM (top of the series) unless noted; also: % is scaled to controls: 0 for no effect and ±100 for the full control effect
In short: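 GeneBLAzer UAS-bla HEK293H cells carrying a PPARδ construct were exposed to compounds at 37 °C. Beta-lactamase activity was read by FRET fluorescence after 2 h at room temperature with LiveBLAzer B/G substrate.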

[16] = target: Peroxisome proliferator-activated receptor delta (Homo sapiens) (UniProt Q03181); assay: qHTS assay to identify small molecule antagonists of the peroxisome proliferator-activated receptor delta (PPARd) signaling pathway (AID 743215; active = well fitted inhibition curve with a large enough effect in the signal ratio in the repeat runs, not every such curve was filed as active; inconclusive = weak or mixed curves, or effect the other way; inactive = no such curve, though single readings can be large or run the other way; the % refers to the signal ratio;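 also: cells stimulated with agonist L165041 at 300 nM final during compound exposure; % is scaled to controls: 0 for no effect and ±100 for the full control effect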); settings: HEK293H PPARd-UAS-bla, beta-lactamase FRET ratio, antagonist, 17 h; ratio activity, negative = inhibition: at 62 µM (top of the series) unless noted
In short: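 Antagonist-mode beta-lactamase reporter screen: HEK293H cells with UAS-bla under PPARd control, stimulated by 300 nM L165041 (final) alongside test compound for 17 h at 37 C, then FRET fluorescence after 2 h substrate incubation.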

[17] = activity change, negative = inhibition: at 61 µM (top of the series) unless noted
[18] = activation: at 73.3 µM (top of the series) unless noted
Tags tell the direction and shape of the fitted curve or compound fluorescence and quenching.

Chain of UniProt Q96RI1 (Q96RI1 whole entry, looked up): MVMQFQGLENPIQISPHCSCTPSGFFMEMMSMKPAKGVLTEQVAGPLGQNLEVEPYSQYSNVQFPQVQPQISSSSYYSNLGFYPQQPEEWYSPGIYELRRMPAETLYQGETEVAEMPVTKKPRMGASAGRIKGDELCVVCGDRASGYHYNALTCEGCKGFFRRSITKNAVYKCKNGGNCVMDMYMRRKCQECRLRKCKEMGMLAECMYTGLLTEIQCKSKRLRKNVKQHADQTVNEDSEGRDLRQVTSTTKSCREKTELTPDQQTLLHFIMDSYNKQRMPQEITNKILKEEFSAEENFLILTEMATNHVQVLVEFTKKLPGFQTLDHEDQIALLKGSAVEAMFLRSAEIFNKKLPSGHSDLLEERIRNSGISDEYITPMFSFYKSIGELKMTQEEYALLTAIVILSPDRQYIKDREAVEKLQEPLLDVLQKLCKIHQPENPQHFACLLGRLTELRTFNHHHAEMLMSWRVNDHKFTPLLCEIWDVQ
Chain of UniProt P11473 (P11473 whole entry, looked up): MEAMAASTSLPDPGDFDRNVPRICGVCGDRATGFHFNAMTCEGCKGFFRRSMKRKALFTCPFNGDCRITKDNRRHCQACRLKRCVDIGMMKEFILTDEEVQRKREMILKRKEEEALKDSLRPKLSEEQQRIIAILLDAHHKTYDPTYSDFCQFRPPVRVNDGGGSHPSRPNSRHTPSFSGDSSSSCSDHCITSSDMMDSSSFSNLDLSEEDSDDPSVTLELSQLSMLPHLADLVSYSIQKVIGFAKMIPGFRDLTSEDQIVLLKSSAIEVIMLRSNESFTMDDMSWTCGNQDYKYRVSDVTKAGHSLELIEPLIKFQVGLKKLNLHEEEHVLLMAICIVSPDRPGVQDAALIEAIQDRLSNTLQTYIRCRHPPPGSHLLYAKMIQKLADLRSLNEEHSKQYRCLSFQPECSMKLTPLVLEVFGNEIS
Chain of UniProt Q03181 (Q03181 whole entry, looked up): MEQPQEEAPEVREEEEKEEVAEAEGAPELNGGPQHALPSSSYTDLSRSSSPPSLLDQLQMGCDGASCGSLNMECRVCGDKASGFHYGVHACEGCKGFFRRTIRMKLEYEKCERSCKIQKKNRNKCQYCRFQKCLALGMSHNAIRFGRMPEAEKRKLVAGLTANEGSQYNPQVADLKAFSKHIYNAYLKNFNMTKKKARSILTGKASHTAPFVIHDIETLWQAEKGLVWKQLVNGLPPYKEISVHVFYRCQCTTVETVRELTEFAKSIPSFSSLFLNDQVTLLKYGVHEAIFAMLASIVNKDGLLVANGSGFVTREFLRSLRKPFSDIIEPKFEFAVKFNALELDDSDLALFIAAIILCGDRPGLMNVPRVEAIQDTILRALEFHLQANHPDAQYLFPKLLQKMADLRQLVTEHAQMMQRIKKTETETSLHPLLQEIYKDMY

## O=C(CCCl)NCCc1ccccc1
[1]
  Potency: inactive
[2]
  Potency: inactive

## OC(C#CCN1CCCC1)(c1ccccc1)c1ccccc1
[3]
  Potency: inconclusive: 0.0047 µM [rising, full curve, poor fit]
[1]
  Potency: inconclusive: 13.3 µM [rising, partial curve, poor fit]
[4]; [17]
  activity change, negative = inhibition: inconclusive: -0.107%
[2]
  Potency: active: 16.9 µM

## Cc1ccc(C(=O)Nc2ccc(S(=O)(=O)O)c3cc(S(=O)(=O)O)cc(S(=O)(=O)O)c23)cc1NC(=O)c1cccc(NC(=O)Nc2cccc(C(=O)Nc3cc(C(=O)Nc4ccc(S(=O)(=O)O)c5cc(S(=O)(=O)O)cc(S(=O)(=O)O)c45)ccc3C)c2)c1
[5]
  Potency: inactive
[2]
  Potency: inactive

## COc1cccc2sc(N)nc12
[4]; [17]
  Potency: inactive
[2]
  Potency: inactive

## CCOC(=O)CC(=O)c1cc(F)c(Cl)nc1Cl
[6]
  Potency: inconclusive: 1.78 µM [cytotoxic, partial curve, poor fit]
[2]
  Potency: inconclusive: 56.3 µM [falling, single point]

## Cc1c(C(=O)NCCO)[n+](=O)c2ccccc2n1[O-]
[4]; [17]
  Potency: inactive
[2]
  Potency: inconclusive: 0.0008 µM [fluorescent]

## O=c1cc(CO)occ1O
[4]; [17]
  Potency: inactive
[2]
  Potency: inactive

## CC(=O)N[C@H]1[C@H]([C@H](O)[C@H](O)CO)OC(C(=O)O)=C[C@@H]1N=C(N)N
[3]
  Potency: inactive
[4]; [17]
  activity change, negative = inhibition: inconclusive: 7.68%
[2]
  Potency: inactive

## CCCOCC(C)O (stereo not given)
[7]; [18]
  Potency: inactive

## CC(=O)OCC(=O)[C@@]12N=C(C)O[C@@H]1C[C@H]1[C@@H]3CCC4=CC(=O)C=C[C@]4(C)[C@H]3[C@@H](O)C[C@@]12C
[5]
  Potency: inconclusive: 0.0776 µM [rising, full curve, poor fit]
[4]; [17]
  activity change, negative = inhibition: inconclusive: 22.2%
[4]; at 61 µM (top of the series)
  activity change, negative = inhibition: inactive: -8.94%
[6]
  Potency: inactive
[2]
  Potency: inconclusive: 49 µM [activator] and inactive

## CNCCS(=O)(=O)O
[3]
  Potency: inconclusive: 0.139 µM [rising, partial curve, poor fit]
[4]; [17]
  activity change, negative = inhibition: inconclusive: 29% [at 78.8 µM]
[2]
  Potency: inactive

## OCc1ccccc1
[4]; [17]
  Potency: inactive
[6]
  Potency: inactive
[2]
  Potency: inactive

## CC(C)(C#N)c1cc(Cn2cncn2)cc(C(C)(C)C#N)c1
[3]
  Potency: inconclusive: 0.944 µM [rising, full curve, poor fit]
[6]
  Potency: inconclusive: 0.0213 µM [cytotoxic, full curve, poor fit]
[2]
  Potency: inactive

## CN(C)C(=O)C(CCN1CCC(O)(c2ccc(Cl)cc2)CC1)(c1ccccc1)c1ccccc1
[7]; [18]
  activation: inconclusive: -0.16%
[8]
  Potency: inconclusive: 33.5 µM [cytotoxic, single point]
[9]
  Potency: active: 11.9 µM
[10]
  Potency: inconclusive: 26.6 µM [partial curve]
[3]
  Potency: inconclusive: 37.6 µM [cytotoxic, partial curve, poor fit]
[1]
  Potency: inactive
[11]
  Potency: active: 29.8 µM
[12]
  Potency: inconclusive: 13.3 µM [cytotoxic, partial curve]

## CCCCCCCCCC(C)C=O (stereo not given)
[7]; [18]
  activation: inconclusive: 44.7%
[8]
  Potency: inconclusive: 68.6 µM [cytotoxic]
[13]
  Potency: inconclusive: 50.9 µM [activator]
[1]
  Potency: inactive
[6]
  viability change, negative = cytotoxic: inconclusive: -31.1% [cytotoxic]

## CCOC(=O)C1=NN(c2ccccc2)C(=O)C1
[7]; [18]
  Potency: inactive
[8]
  Potency: inconclusive: 24.3 µM [cytotoxic, partial curve, poor fit]
[14]
  Potency: inconclusive: 54.9 µM [cytotoxic, single point]
[15]
  Potency: inactive

## Nc1cccc(C(F)(F)F)c1
[7]; at 73.3 µM (top of the series)
  activation: inconclusive: -15.4%
[7]; at 94.8 µM (top of the series)
  activation: inconclusive: -1.05%
[16]
  Potency: inactive
[3]
  Potency: inconclusive: 22.6 µM [rising, single point]

## CC(=O)N1C[C@H](O)C[C@H]1C(=O)O
[7]; [18]
  Potency: inactive

## CC(=O)Nc1nnc(S(N)(=O)=O)s1
[7]; [18]
  Potency: inconclusive: 61.8 µM

## CC(C)CCC(=O)CCC(C)C
[7]; [18]
  activation: inconclusive: 18.4%

## Cc1ccc(Cl)cc1
[7]; [18]
  Potency: inactive
[8]
  Potency: inactive
[3]
  Potency: inconclusive: 3.89 µM [rising, full curve]
[4]; [17]
  activity change, negative = inhibition: inconclusive: 8.59%
[4]; at 78.8 µM (top of the series)
  activity change, negative = inhibition: inactive: 0.363%

## CCC(=O)OC(C)(C)C1CC=C(C)CC1 (stereo not given)
[7]; [18]
  activation: inconclusive: 15.2%
[8]
  Potency: inconclusive: 61.1 µM [cytotoxic, partial curve, poor fit]
[10]
  Potency: inactive
[3]
  Potency: inconclusive: 0.871 µM [rising, partial curve, poor fit]
[6]
  Potency: inactive

## COc1ccc(C(=O)Nc2ccccc2)cc1[N+](=O)[O-]
[7]; [18]
  Potency: inconclusive: 48.9 µM [rising, partial curve]
[8]
  Potency: inactive
[9]
  Potency: inconclusive: 0.011 µM [cytotoxic, full curve, poor fit]
[10]
  Potency: inactive
[5]
  Potency: inconclusive: 4.93 µM [fluorescent, full curve, poor fit]
[4]; [17]
  activity change, negative = inhibition: inconclusive: -13% [at 78.8 µM]
[12]
  Potency: inactive
